In the supplement of paper PMC3334620:
Whole data set: some 33,000 sequences, median “E-score (-0.5 to 0.5)” near -0.04, cut for the highest 2% near 0.36. The list shows a part of the results.

molecular target: T1, Hmlalpha2 (UniProt P0CY09); experiment: PBM E-score (8-mer binding enrichment) (E-score (-0.5 to 0.5)); higher = stronger / more preferred TF binding; most listed sequences are background and not binding sites; details: protein concentration: 200 nM; construct: GST-full length
T1 sequence: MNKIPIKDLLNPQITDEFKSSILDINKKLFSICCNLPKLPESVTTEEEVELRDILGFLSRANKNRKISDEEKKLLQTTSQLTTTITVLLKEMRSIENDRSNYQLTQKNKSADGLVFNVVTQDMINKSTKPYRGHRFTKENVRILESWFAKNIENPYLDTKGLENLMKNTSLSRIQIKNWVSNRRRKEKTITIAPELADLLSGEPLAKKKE
Protocol: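 Universal 'all 10-mer' protein binding microarrays (Agilent AMADID 015681) probed with GST-tagged S. cerevisiae TFs (full-length or DBD) made by in vitro transcription/translation (PURExpress), about 100-200 nM. Bound TF was detected with fluorescent anti-GST. Each ungapped 8-mer (which stands for itself and its reverse complement) is scored by the PBM enrichment score (E-score), a modified Wilcoxon-Mann-Whitney statistic from -0.5 to +0.5, computed with the Universal PBM Analysis Suite. Scale: above 0.35 generally sequence-specific binding.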

| Sequence | PBM E-score |
| --- | --- |
| AGTTTCCC | -0.194 |
| ACTTTTAA | 0.0963 |
| CCACGAGC | -0.115 |
| AGATATGG | -0.132 |
| AAAGCCAA | -0.0644 |
| CCCTGAAA | 0.0432 |
| CCTGTAAA | 0.328 |
| GATCCTAA | -0.17 |
| ATCTTTGG | -0.0184 |
| CCAGAGGG | -0.323 |
| CTCAACAA | 0.302 |
| ATTCGAGG | -0.205 |
| GGCAGAAC | -0.103 |
| CGGTTGGC | -0.124 |
| CTTGGTAA | 0.207 |
| GAATCGTC | -0.121 |
| ATATTACA | 0.439 |
| AATATAAA | 0.138 |
| GACATCCC | -0.0319 |
| AGTCTAGC | -0.287 |
| GCGCTTGA | -0.0211 |
| AAACCTGA | -0.12 |

| Sequence | PBM E-score |
| --- | --- |
| ACTGAAGG | -0.0352 |
| CGTAGCCA | -0.135 |
| ACGCACGC | 0.222 |
| CAGTGCAG | -0.0392 |
| CTAGGTGA | -0.157 |
| AGCCACGG | -0.254 |
| AACCATGG | -0.151 |
| AGATCGTA | -0.103 |
| ATGGTAAT | 0.229 |
| TTGGACAA | 0.0109 |
| AGCCGTCA | -0.154 |
| CGTACCAG | -0.11 |
| ATGTACAT | 0.457 |
| ATCAATTC | -0.0186 |
| GTTAAAAA | 0.369 |
| CCCGCTTC | -0.186 |
| CCAGCGAG | -0.231 |
| GCTTGTCC | 0.0243 |
| ACCAGCCT | -0.298 |
| CTTGGAAA | 0.00718 |
| AGGAGGAT | -0.0653 |
| AACCCACT | 0.049 |

| Sequence | PBM E-score |
| --- | --- |
| GGGGGTGA | -0.275 |
| CACCGGGC | -0.256 |
| AAGCCTAC | -0.0304 |
| ATTCCGTC | -0.126 |
| AAGACCTT | -0.043 |
| GTGTCCGA | -0.00682 |
| TGTCCAAA | 0.129 |
| GTTGCGCA | 0.0149 |
| GGGGACAC | -0.178 |
| CTTAGTGC | -0.0694 |
| CCTTGGAC | -0.179 |
| AGCAAGCG | -0.131 |
| GGCAGCCC | -0.418 |
| CCATGTCA | 0.333 |
| GAAGGCAC | -0.049 |
| CCTGAACC | -0.0377 |
| GTATACAC | 0.416 |
| AGGATCGA | -0.105 |
| AGCCGGAG | 0.00718 |
| ACAGGCAT | 0.0686 |
| ACAAGCCC | -0.0483 |
| CCGGACCA | -0.0856 |

| Sequence | PBM E-score |
| --- | --- |
| AAGTATAT | 0.145 |
| ACTTGCGA | -0.0274 |
| ATGGCGTC | -0.143 |
| CCATGTCG | 0.336 |
| AGCTTCCG | -0.161 |
| AAACGTGC | 0.0623 |
| CGAATTAA | 0.105 |
| CCCATAAC | 0.026 |
| AGTTTATA | 0.222 |
| ATCCGACC | -0.0115 |
| ATCAGTAG | -0.0277 |
| CATGGACC | -0.0675 |
| ACAGTTGA | -0.0582 |
| ACCCCATC | -0.218 |
| AATTACTG | 0.11 |
| ACTGCGCA | -0.113 |
| AGGTAAAG | 0.19 |
| CGCTAACA | 0.205 |
| ATATTTTA | 0.101 |
| TCTTGCAA | 0.131 |
| ACATATGC | 0.123 |
| CGAGTATA | 0.0118 |

| Sequence | PBM E-score |
| --- | --- |
| CCCAGGGA | -0.372 |
| CGAAATCC | -0.0484 |
| TGGAGTAA | 0.0743 |
| ATCCTGAC | -0.0392 |
| AACAGCCT | -0.0473 |
| AGACCGAC | -0.068 |
| GCCACCGA | -0.176 |
| AGCACTGA | -0.209 |
| ACGTTATC | 0.145 |
| CGAAATTA | 0.137 |
| CCGCTTAC | 0.0139 |
| GAACATGA | 0.31 |
| ACCTGTAG | -0.162 |
| CATCCCGG | -0.169 |
| ATGTGCCG | -0.252 |
| GTGGCAGA | -0.286 |
| ATAAGAGG | -0.214 |
| ACAAGAAG | 0.109 |
| GCAAGGGC | -0.33 |
| AACGCCAG | 0.0358 |
| ATCGATTG | 0.0324 |
| CACGCGCG | 0.0866 |
